Measurements: the supplement of paper PMC12340641
Whole data set: some 1,000 compounds, median “relative growth in counter assay (no AraC = 100%, AraC + DMSO = 0%)” near -1.1, cut for the highest 2% near 20. The list shows a part of the results.

Each compound was assayed on HEK293FT dCK*-only (assay: relative growth in counter assay (no AraC = 100%, AraC + DMSO = 0%); higher = more growth rescue independent of IKZF1). Settings: compound concentration: 5 uM; AraC concentration: 0.3 uM; overnight pretreatment + 4 days AraC.
Experimental: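 Growth recovery screen of the molecular-glue-like (Specs) library. HEK293FT cells expressing a dCK*-IKZF1 fusion (primary) or dCK* alone (counter) were pretreated overnight with compound at 5 uM, then given 0.3 uM AraC for 4 days. Hoechst nuclei were counted by imaging. Primary: normalised to pomalidomide (100%) and DMSO (0%), mean of 2 replicates. Counter: normalised to no-AraC (100%) and AraC+DMSO (0%), single replicate.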

Structure (SMILES)	relative growth in counter assay [%]
Cc1ccnc(NS(=O)(=O)c2ccc(NC(=O)COc3ccccc3)cc2)n1	1.02
CCCc1cnc(Nc2cccc(C3CCN(C(=O)C4CCCCN4CC(=O)O)CC3)n2)s1 (configuration not stated)	-19.3
Cc1ccc(C)c2c1[nH]c1nc(SCC(=O)Nc3ccc(F)c(Cl)c3)nnc12	-1.28
COc1cc(C(=O)Nc2ccc(S(=O)(=O)Nc3ncccn3)cc2)cc(OC)c1OC	0.1
Cc1cc(NS(=O)(=O)c2ccc(NC(=O)C(C)(C)C)cc2)nc(C)n1	-3.37
COc1ccccc1OCC(=O)Nc1ccc(S(=O)(=O)Nc2nc(C)cc(C)n2)cc1	-7.04
COc1cccc(C(=O)Nc2ccc(S(=O)(=O)Nc3ncccn3)cc2)c1	-5
Cc1cnc(Nc2cccc(C3CCN(CC(=O)N4CCC(C)CC4)CC3)n2)s1	-9.8
O=C1CCC(N2C(=O)c3ccc(Br)cc3C2=O)C(=O)N1 (configuration not stated)	-18
CC(=O)NC1(CC(=O)N2CCC(c3cccc(Nc4ncc(C)s4)n3)CC2)CCCCC1	-16
Cc1ccc(C(C)C)c(OCC(=O)Nc2ccc(S(=O)(=O)Nc3ncccn3)cc2)c1	1.72
Cc1ccnc(NS(=O)(=O)c2ccc(NC(=O)CC(C)(C)C)cc2)n1	-3.55
COCC(C)NC(=O)CN1CCC(c2cccc(Nc3nc(C)c(C)s3)n2)CC1 (configuration not stated)	25.6
Cc1ccnc(NS(=O)(=O)c2ccc(NC(=O)c3cccc(Cl)c3)cc2)n1	7.75
COc1ccc(C(=O)Nc2ccc(S(=O)(=O)Nc3ncccn3)cc2)cc1OC	-2.72
Cc1cc(NS(=O)(=O)c2ccc(NC(=O)CCCOc3ccccc3C)cc2)nc(C)n1	2.18
Cc1ccc(C)c(OCC(=O)Nc2ccc(S(=O)(=O)Nc3ccccn3)cc2)c1C	-3.75
Cc1cc(C)c2[nH]c3nc(SCC(=O)Nc4ccc(Cl)cc4)nnc3c2c1	-17.9
Cc1cc(OCC(=O)Nc2ccc(S(=O)(=O)Nc3ccccn3)cc2)ccc1Cl	-2.95
CCCc1cnc(Nc2cccc(C3CCN(C(=O)Cn4c(CC(C)C)nc5ccccc54)CC3)n2)s1	-2.22
Cc1cc(C)c(OCC(=O)Nc2ccc(S(=O)(=O)Nc3nc(C)cc(C)n3)cc2)c(C)c1	4.97
Cc1cnc(Nc2cccc(C3CCCN3C(=O)CCc3cccc(Cl)c3)n2)s1 (configuration not stated)	6.38
Cc1ccc(Nc2nc(C3CCCN3C(=O)/C=C/c3csc(C)n3)cs2)nc1 (configuration not stated)	11.1
Cc1cnc(Nc2cccc(C3CCN(CC(=O)Nc4c(F)cccc4F)CC3)n2)s1	-16.6

Structure (SMILES)	relative growth in counter assay [%]
COc1ccc(CC(=O)Nc2ccc(S(=O)(=O)Nc3nccc(C)n3)cc2)cc1	-20.9
COc1ccc(C(=O)Nc2ccc(S(=O)(=O)Nc3cc(C)nc(C)n3)cc2)cc1	-14
Cc1cc(OCC(=O)Nc2ccc(S(=O)(=O)Nc3ncccn3)cc2)cc(C)c1Cl	-3.02
Cc1cnc(Nc2ccc(C(=O)N3CCC=C(CCC(=O)NO)C3)cn2)s1	-2.5
CC(=O)NC1(C(=O)N2CCC(c3cccc(Nc4ncc(C)s4)n3)CC2)CCCCC1	-26.4
Cc1ccc(N2CC(C(=O)Nc3ccc(S(=O)(=O)Nc4ncccn4)cc3)CC2=O)cc1C (configuration not stated)	-7.53
COc1cc(NS(=O)(=O)c2ccc(Nc3nc(-c4c(C)nc5ncccn45)cs3)cc2)nc(OC)n1	2.39
CC(=O)N1CCCC(c2csc(Nc3ccc(C)cn3)n2)C1 (configuration not stated)	2.06
CCCc1cnc(Nc2cccc(C3CCN(C(=O)[C@@H]4CCCN4CCO)CC3)n2)s1	-20.6
Cc1cnc(Nc2cccc(C3(C(N)=O)CCN(C(=O)C4CCCCC4)CC3)n2)s1	-22.4
COc1cc(NS(=O)(=O)c2ccc(NC(=O)COc3ccc(C)cc3)cc2)nc(OC)n1	0.81
Cc1cnc(Nc2cccc(CC3CCN(C(=O)Cn4c(CC(C)C)nc5ccccc54)CC3)n2)s1	4.17
O=C(Nc1ccc(S(=O)(=O)Nc2ccccn2)cc1)c1cccnc1	0.27
O=C(/C=C/c1ccccc1Cl)Nc1ccc(S(=O)(=O)Nc2ncccn2)cc1	-21.8
Cc1nc(Nc2cccc(C3CN(C(=O)CCc4c(C)n[nH]c4C)CCO3)n2)sc1C (configuration not stated)	2.31
Cc1cnc(Nc2cccc(C3CCN(C(=O)C4CCN(C(C)C)CC4)CC3)n2)s1	11.2
Cc1cc(NS(=O)(=O)c2ccc(NC(=O)C3COc4ccccc4O3)cc2)nc(C)n1 (configuration not stated)	-10.4
Cc1nc(Nc2cccc(C3CCCN3C(=O)CN3C(=O)NC(C)(C)C3=O)n2)sc1C (configuration not stated)	13
CCCCc1cnc(Nc2cccc(C3CCN(C(=O)C(C)(C)NC(=O)COC)CC3)n2)s1	-10.6
CNC(=O)C(c1cccc(Nc2ncc(C)s2)n1)C1CCN(C(=O)C2CCCCC2)CC1 (configuration not stated)	-1.15
Cc1cc(NS(=O)(=O)c2ccc(NC(=O)c3ccc(C)c(C)c3)cc2)nc(C)n1	-8.28
O=S(=O)(Nc1ncccn1)c1ccc(-n2cnnn2)cc1	-1.47
CCCc1cnc(Nc2cccc(C3CCN(C(=O)[C@@H](N)C(C)O)CC3)n2)s1 (some centres not stated)	-24.9
